Test results as given in US20250313638A1 (KISOJI BIOTECHNOLOGY, published 2025).

Experiments:
[1] = target: human Dopamine Receptor D2 expressed on transfected HEK293 cells (human, UniProt P14416 1-443); test: cell-based or functional assay
[2] = target: T1, human Dopamine Receptor D2 presented on proteoliposomes (human, UniProt P14416 1-443, limits assumed); test: ELISA: D2 proteoliposomes coated on the plate, anti-human-Fc-HRP, chemiluminescence
T1 construct: also called D2 proteoliposomes; human D2 presenting proteoliposomes
Protocol: Plates were covered and left at 4° C. overnight. The next day, plates were washed once with PBS and blocked with blocking buffer for 1 hour at room temperature. […] After incubation, plates were washed three times with washing buffer. Plates were incubated with anti-human-Fc-HRP (Sigma-Aldrich, Cat. No. AP113P) diluted at 1:5000 for 1 hour at room temperature, then washed three times with PBS-T washing buffer. The signal was developed with SuperSignal™ ELISA Pico Chemiluminescent Substrate (Thermofisher, Cat. No. 37069). The plates were read on a SpectraMax™ i3x Multi-Mode Microplate Reader (Molecular Devices).

[3] = target: T2, recombinant human CD47 protein (human, UniProt Q08722 fragment); test: ELISA: recombinant human CD47 coated on the plate, chemiluminescence
T2 construct: Bought (Cedarlane Cat. No. 12283-H08H-200); also called human recombinant CD47 protein; CD47 recombinant protein

[4] = target: T3, human CD47 on cells (HEK293T cells, human blood cells, primary human T cells) (human, UniProt Q08722); test: flow cytometry on primary human T cells
T3 construct: Endogenous CD47 of human cells; For blood cells and T cells it is inferred from the specificity of the anti-CD47 module

[5] = target: T3, human CD47 on cells (HEK293T cells, …); test: flow cytometry on HEK293T parental and HEK293T-CD47KO cells

B1: KC011 (Fc fusion)
chain: QVQLQESGGGLAPPGGSLRLSCAASGFTFSRHAMSWVRQAPGKGLEWVSDIRSGDGGDGGTSYADSVKGRFTISRDNAKNTLYLQMNSLKPEDTAVYYCALGLWKILPSTRGRGTQVTVSS[gap - human IgG1 Fc]
EC50, GPCR BRET assay, biosensor Gαz, second column [1]: 7.04 pM

B2: KC012 (Fc fusion)
chain: QVQLQESGGGLVHPGGSLRLSCAASGLTFSQRAMSWVRQAPGKGLEWISDIKSTGETSYADSVKGRFTISRDNARNTVYLQMNSLKPEDTAVYYCALGLWKILPSVRGRGTQVTVSS[gap - human IgG1 Fc]
EC50, GPCR BRET assay, biosensor Gαz, second column [1]: 7 pM

B3: KC013 (Fc fusion)
chain: QVQLQESGGGLVQAGGSLRLSCAASEIIFSITAMNWYRQAPGKQRELVAGISSSGKITYQDSVKGRFTISKDNAKNTLYLQMNSLKPEDTAVYYCNTWAGARDAIWGQGTQVTVSS[gap - human IgG1 Fc]
notes: VHH KC001 fused with human IgG1 hinge-CH2-CH3; May comprise a His-tag or not
EC50, GPCR BRET assay, biosensor Gαz, first column [1]: 6.57 pM | EC50, GPCR BRET assay, biosensor Gαz, second column [1]: 6.04 pM | EC50 (read off the curve) [2]: ~100 pM

B4: KC014 (Fc fusion)
chain: QVQLLESGGGLVQPGGSLRLSCAASGDRITNKDMGWVRQAPGKGLEWVSAIAKNNGSTYYADSVKGRFTISRDNSKNTLYLQMNSLRAEDTAVYYCAGLTHRGASKFNYWGQGTLVTVSS[gap - human IgG1 Fc]
EC50, GPCR BRET assay, biosensor Gαz, first column [1]: 7.19 pM | EC50, GPCR BRET assay, biosensor Gαz, second column [1]: 6.91 pM

B5: KC015 (Fc fusion)
chain: QVQLQESGGGLVQPGGSLRLSCAASRFDFSVNDIRWYRQAPGNERELVARITGGGRTDYADSVKGRFTISRDNAKNTVYLQMNNLKPEDTAVYYCWGRGYWGQGTQVTVSS[gap - human IgG1 Fc]
notes: May comprise a His-tag or not
EC50 (read off the curve) [3]: ~60 pM

B6: KC040 (Fc fusion)
chain: QVQLQESGGGLVQAGGSLRLSCAASEIIFSITAMNWYRQAPGKQRELVAGISSSGKITYQDSVKGRFTISKDNAKNTLYLQMNSLKPEDTAVYYCNTWAGARDAIWGQGTQVTVSS[gap - human IgG1 Fc]APAPAPAPAPKADVQLVESGGGSVQAGGSLRLSCAASGSTDSIEYMTWFRQAPGKAREGVAALYTHTGNTYYTDSVKGRFTISQDKAKNMAYLRMDSVKSEDTAIYTCGATRKYVPVRFALDQSSYDYWGQGTQVTVSSGGGGSGGGGSGGGGSQVQLQESGGGLVQPGGSLRLSCAASRFDFSVNDIRWYRQAPGNERELVARITGGGRTDYADSVKGRFTISRDNAKNTVYLQMNNLKPEDTAVYYCWGRGYWGQGTQVTVSS
notes: KC001 VHH, human IgG1 hinge-CH2-CH3, rigid linker, anti-HEWL VHH, flexible linker, KC010 VHH; May comprise a His-tag or not; also called (DR2)
binding result [4]: binds

B7: KC016 (Fc fusion)
chain: DVQLVESGGGSVQAGGSLRLSCAASGSTDSIEYMTWFRQAPGKAREGVAALYTHTGNTYYTDSVKGRFTISQDKAKNMAYLRMDSVKSEDTAIYTCGATRKYVPVRFALDQSSYDYWGQGTQVTVSS[gap - human IgG1 Fc]
notes: Anti-HEWL VHH fused with human IgG1 hinge-CH2-CH3; May comprise a His-tag or not; also called negative control
binding result [3]: no binding (tested: about 40 nM) | binding result [5]: no binding (tested: not printed)

B8: KC039 (Fc fusion)
VHH-hinge-CH2-CH3-linker-VHH-linker-VHH polypeptide chain: QVQLVESGGGSVQAGGSLRLSCAASGSTDSIEYMTWFRQAPGKAREGVAALYTHTGNTYYTDSVKGRFTISQDKAKNMAYLRMDSVKSEDTAIYTCGATRKYVPVRFALDQSSYDYWGQGTQVTVSS[gap - human IgG1 Fc]APAPAPAPAPKAQVQLVESGGGSVQAGGSLRLSCAASGSTDSIEYMTWFRQAPGKAREGVAALYTHTGNTYYTDSVKGRFTISQDKAKNMAYLRMDSVKSEDTAIYTCGATRKYVPVRFALDQSSYDYWGQGTQVTVSSGGGGSGGGGSGGGGSQVQLVESGGGSVQAGGSLRLSCAASGSTDSIEYMTWFRQAPGKAREGVAALYTHTGNTYYTDSVKGRFTISQDKAKNMAYLRMDSVKSEDTAIYTCGATRKYVPVRFALDQSSYDYWGQGTQVTVSS
notes: also called negative control; (HEWL)
binding result [5]: no binding (tested: not printed)
